Measured values: PubChem BioAssay AID1458 (National Center for Advancing Translational Sciences (NCATS), 2008)
The campaign covered roughly 210,000 compounds. About 5,900 (2.8%) were called active. A call without a number means that no potency is given here. The shares of active, inactive and inconclusive entries below differ from those in the screen. Calls follow the shape of the dose curve; as a rule, active = well fitted activation curve with a large enough effect; inconclusive = small, poorly fitted or top-dose-only effect; inactive = no such curve, though single readings can be large or run the other way. Where the call is inconclusive, the potency comes from a doubtful curve fit.
Potency is read from the fitted curve at half-maximal effect; tags tell the direction and shape of the fitted curve.

Assay: qHTS Assay for Enhancers of SMN2 Splice Variant Expression; also: nearly all actives have a fitted effect of over 55% in size
Details: HEK293 SMN2-luciferase splicing reporter, luminescence, 30-36 h; series mostly up to 46.1 µM
In short: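 qHTS luciferase splicing reporter: luminescence rises when SMN2 exon 7 is included in transfected HEK293 cells. Compound exposure lasted 30-36 h at 37C, with 4.5 mM final sodium butyrate as control, followed by a ONE-Glo read.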
For `CCn1c(-c2ccccc2Cl)nn(CC(=O)Nc2ccccc2OC)c1=S`, the Potency was “inactive”. With `O=C(Nc1ccccc1)c1cc2c(=O)c3ccccc3oc2nc1C(F)(F)F` the Potency was “inactive”. With `CCOC(=O)C1=c2/c(=C/c3ccncc3)c(N)c(C(=O)OC)n2C(=O)C(c2ccncc2)S1` (stereo not drawn) the Potency was “inactive”. With `O=C(OCC(=O)c1ccc[nH]1)c1ccc(S(=O)(=O)N2CCCCCC2)cc1` the Potency was “inactive”. With `COc1ccccc1Nc1nc(-c2ccccc2)c(CC(=O)O)s1` the Potency was “inactive”. In the case of `CC(C)C(NC(=O)OCc1ccccc1)C(=O)OCC(=O)N1CCCCC1` (stereo not drawn), the Potency is reported as inconclusive: 11.2 µM [activator, partial curve, poor fit]. For `Cn1sc(NC(=O)c2ccccc2Cl)nc1=O`, the Potency was inconclusive: 35.5 µM [activator, single point]. In the case of `S=C(NCc1ccccn1)Nc1ccc(Cl)cc1`, the Potency is reported as inconclusive: 2.51 µM [activator, full curve, poor fit]. For `CCOC(=O)CC(=O)CSc1nc2ccc(C)cc2cc1C#N`, the Potency was active: 25.1 µM. In the case of `Cn1c(=O)c2c(nc(SCC(=O)NCc3ccc4c(c3)OCO4)n2Cc2ccccc2)n(C)c1=O`, the Potency is reported as “inactive”. With `c1ccc2[nH]c(CSc3nccs3)nc2c1` the Potency was inconclusive: 25.1 µM [activator, single point]. For `O=C1CSC(c2cn(-c3ccccc3)nc2-c2cc3ccccc3oc2=O)N1Cc1ccccc1` (stereo not drawn), the Potency was “inactive”. In the case of `O=C(Nc1ccc(Cl)cc1C(=O)NCC1CCCO1)c1ccco1` (stereo not drawn), the Potency is reported as inconclusive: 3.16 µM [activator, single point]. For `COc1ccc(C)cc1NC(=O)Cn1cc(S(=O)(=O)N2CCC(C)CC2)c2ccccc2c1=O`, the Potency was “inactive”. With `CCCNC(=O)c1cccc(Br)c1` the Potency was “inactive”. For `COc1ccccc1NC(=O)/C=C/C(N)=O`, the Potency was “inactive”. In the case of `Clc1ccccc1-c1nn2c(COc3ccccc3)nnc2s1`, the Potency is reported as inconclusive: 0.891 µM [activator, full curve, poor fit]. In the case of `COc1ccc(C2CC(c3ccccc3)Nc3nc(N)nn32)cc1` (stereo not drawn), the Potency is reported as inconclusive: 5.62 µM [activator, single point]. With `CCOc1ccc(NS(=O)(=O)c2ccc(OCC(=O)NCCCOC)cc2)cc1` the Potency was inconclusive: 0.501 µM [activator, full curve, poor fit]. For `CC1(C)CC(=O)c2cc(-c3nc(-c4ccc(F)cc4)cs3)c(=O)[nH]c2C1`, the Potency was “inactive”. With `COc1cccc(NC(=S)NCc2cccs2)c1` the Potency was inconclusive: 0.1 µM [activator, full curve, poor fit]. In the case of `COC(=O)c1c(NC(=O)c2ccc(C(C)(C)C)cc2)sc2c1CCC(C)C2` (stereo not drawn), the Potency is reported as “inactive”. With `Clc1ccc(-c2cn3cc(Cc4ccccc4)sc3n2)cc1` the Potency was active: 5.62 µM.
